Out of some 52,000 compounds screened, about 1,700 (3.3%) were called active. Rule as the data show it: active = survival mostly below about 52% (no sharp cut-off); inactive = mostly above about 56%. This is one part of the list.
System: Wild type
Experiment: S. aureus survival, RN4220 and DeltatarO strains – OD600, teichoic acid synthesis inhibitors, primary screen (AID 463173)
Conditions: S. aureus RN4220 wild type/DeltatarO growth, OD600, 18 h, hits give low values, screened at 18.75 µg/mL (by protocol)

Q: How did the survival turn out when `CCOc1ccc(CCNC(=O)c2c(C)oc3ncn(C)c(=O)c23)cc1` was run?
A: Its survival is inactive: 82%.

Q: `O=C(COc1ccc(F)cc1)NCCc1nc2ccccc2[nH]1` was tested. Which survival did it give?
A: The survival was inactive: 69%.

Q: With `CC(C)CCOc1ccccc1Cn1c(=O)sc2ccccc21` as the compound, how does the survival read?
A: The survival was active: -1%.

Q: For `CCOC(=O)c1cc(-c2ccccc2)n(CCC(=O)Nc2nc3c(C)cccc3s2)c1C`, which survival is on record?
A: The survival was inactive: 71%.

Q: For `Cc1ccc(Cl)cc1N1CCN(C(=O)c2ccc3nc(N4CCC(C)CC4)sc3c2)CC1`, which survival is on record?
A: Its survival is inactive: 16%.

Q: Which survival does the source give for `Cc1ccccc1NS(=O)(=O)c1ccc2[nH]c3c(c2c1)CCCCC3` here?
A: Its survival is inactive: 80%.

Q: `Cn1c(=O)c2sccc2n2c(CCCC(=O)Nc3ccc(Oc4ccc(Cl)cc4)cc3)nnc12` was tested. Which survival did it give?
A: Its survival is inactive: 32%.

Q: For `N#CCCSc1nnc(-c2ccncc2)n1Cc1ccccc1`, which survival is on record?
A: Its survival is inactive: 105%.

Q: How did the survival turn out when `CCc1ccc(-n2c(=O)c3c(C)c(C(=O)N(C)C)sc3n(Cc3ccccc3F)c2=O)cc1` was run?
A: The survival was inactive: 73%.

Q: With `O=C(CN(C(=O)CSc1nc2ccccc2o1)c1cccc(F)c1)NC1CCCCC1` as the compound, how does the survival read?
A: Its survival is inactive: 101%.

Q: For `CCOc1ccccc1CNC(=O)CCn1ccc2cc(S(=O)(=O)N3CCCCC3)ccc21`, which survival is on record?
A: The survival was inactive: 133%.

Q: For `CC(=O)N1c2c(cc(Br)cc2S(=O)(=O)N2CCN(c3ccccc3)CC2)CC1C` (configuration not stated), which survival is on record?
A: The survival was inactive: 98%.

Q: `Cc1ccc(-c2cc3c(N4CCN(c5cc(C)ccc5C)CC4)nccn3n2)cc1` was tested. Which survival did it give?
A: The survival was inactive: 63%.

Q: Which survival does the source give for `Cc1oc(-c2ccccc2Cl)nc1CS(=O)CC(=O)NCc1ccccc1Cl` (configuration not stated) here?
A: The survival was inactive: 66%.

Q: `COc1ccc(NC(=O)CN2CCN(CC(=O)Nc3ccccc3F)CC2)cc1OC` was tested. Which survival did it give?
A: The survival was inactive: 82%.

Q: How did the survival turn out when `O=C(N=Nc1c(O)[nH]c2ccccc12)C1CC1c1ccccc1` (configuration not stated) was run?
A: Its survival is inactive: 124%.

Q: How did the survival turn out when `O=C1CSC(=S)N1C1CCS(=O)(=O)C1` (configuration not stated) was run?
A: The survival was inactive: 115%.

Q: Which survival does the source give for `CCOc1ccc(N2C(=O)CC(N3CCCCC3CC)C2=O)cc1` (configuration not stated) here?
A: Its survival is inactive: 99%.

Q: `CCOC(=O)c1ccc(NC(=O)COc2cccc3c(=O)n(C)ccc23)cc1` was tested. Which survival did it give?
A: Its survival is inactive: 55%.

Q: For `O=S(=O)(c1ccc(F)cc1)N(Cc1nc(-c2ccccc2)no1)C1CCCCC1`, which survival is on record?
A: The survival was inactive: 84%.

Q: With `O=C(COc1ccc(F)cc1)Nc1ccc(C(=O)OCc2cc(=O)n3nc(C4CC4)sc3n2)cc1` as the compound, how does the survival read?
A: The survival was inactive: 82%.

Q: With `CCOc1ccc(NC(=O)N2CCC(c3ccc(C)cc3)C2)cc1` (configuration not stated) as the compound, how does the survival read?
A: The survival was inactive: 53%.

Q: For `CCn1c(=O)/c(=C2/Sc3ccc(Cl)cc3N2C)s/c1=C1/C(=O)N(C)N=C1C`, which survival is on record?
A: Its survival is inactive: 89%.

Q: For `Cc1ccc(CN(Cc2cccn2-c2nnc(N3CCCC3=O)s2)C(=O)Nc2ccc(F)cc2)cc1`, which survival is on record?
A: Its survival is inactive: 121%.

Q: How did the survival turn out when `Cc1cc(Cl)ccc1OCC(=O)N1CCC(c2nc3ccccc3o2)CC1` was run?
A: Its survival is inactive: 44%.

Q: For `COc1ccccc1CNC(=O)CSCc1nc(-c2ccc(OC)c(OC)c2)oc1C`, which survival is on record?
A: The survival was inactive: 79%.

Q: How did the survival turn out when `COC(=O)c1ccc(NC(=O)C(=O)NCCc2csc(-c3ccc(C(F)(F)F)cc3)n2)cc1` was run?
A: Its survival is inactive: 78%.

Q: `CCOc1ccc(NC(=O)c2sc3nc4c(cc3c2N)CN(Cc2ccccc2)CC4)cc1` was tested. Which survival did it give?
A: Its survival is inactive: 87%.

Q: `Cc1ccc(-n2nc(C(=O)Nc3ccc(Br)cc3C)c(=O)n(C)c2=O)cc1` was tested. Which survival did it give?
A: Its survival is inactive: 95%.

Q: For `Cc1ccc(Cn2ccnc2SCC(=O)Nc2ccccc2C(F)(F)F)cc1`, which survival is on record?
A: Its survival is inactive: 80%.

Q: With `COc1ccc(OC)c(NC(=O)CCn2cccn2)c1` as the compound, how does the survival read?
A: The survival was inactive: 60%.

Q: `COc1ccccc1CNC(=O)C1CCN(S(=O)(=O)c2ccc3[nH]c(=O)ccc3c2)CC1` was tested. Which survival did it give?
A: The survival was inactive: 81%.

Q: `CCOC(=O)c1ccccc1NC(=O)NCc1cccn1Cc1ccc(F)cc1` was tested. Which survival did it give?
A: Its survival is inactive: 84%.

Q: `CCC(=O)OC1CSc2nc3ccccc3n2C1` (configuration not stated) was tested. Which survival did it give?
A: The survival was inactive: 102%.

Q: For `COc1cc(OC)c(NC(=O)Cn2c(SCc3ccccc3F)nc3cccnc32)cc1Cl`, which survival is on record?
A: Its survival is inactive: 66%.

Q: How did the survival turn out when `O=C1CC(c2cccc(Cl)c2Cl)c2cc3c(cc2N1)OCCO3` (configuration not stated) was run?
A: The survival was inactive: 107%.

Q: Which survival does the source give for `Cc1ccccc1Cn1nc(C)c(NC(=O)c2cc(CC(C)C)on2)c1C` here?
A: The survival was inactive: 64%.

Q: `CCOc1ccc(NC(=O)Cn2c(=O)n(Cc3ccco3)c(=O)c3ccc(C(=O)NC4CCCC4)cc32)cc1` was tested. Which survival did it give?
A: Its survival is inactive: 82%.

Q: With `CCc1nn(CC(=O)N2CCN(c3cccc(Cl)c3)CC2)c(=O)c2cc3sccc3n12` as the compound, how does the survival read?
A: Its survival is inactive: 124%.

Q: `CCOc1ccc(NC(=O)Cn2nc(SC)c(S(=O)(=O)c3ccccc3)c2N)cc1` was tested. Which survival did it give?
A: The survival was inactive: 79%.

Q: With `CC(=O)c1ccc(N2CCN(c3nc4ccccc4c4nc(-c5cccc(C)c5)nn34)CC2)cc1` as the compound, how does the survival read?
A: The survival was inactive: 70%.

Q: With `CSc1nc(N)c(C#N)c(C(C)C)c1C#N` as the compound, how does the survival read?
A: The survival was inactive: 111%.

Q: How did the survival turn out when `O=C(NCCCN1CCCCC1)c1[nH]c2ccccc2c1Sc1ccc(Cl)cc1` was run?
A: The survival was active: -1%.

Q: `O=C(CCS(=O)(=O)c1nc(-c2cccs2)cc(C(F)(F)F)n1)Nc1ccc(F)c(Cl)c1` was tested. Which survival did it give?
A: Its survival is inactive: 78%.

Q: For `Cc1ccc(NC(=O)C2CCN(S(=O)(=O)c3ccc4c(c3)CCCN4C(=O)C3CCC3)CC2)cc1`, which survival is on record?
A: Its survival is inactive: 126%.

Q: For `Cc1cc(C)nc(NS(=O)(=O)c2ccc(NC(=O)c3nc(SC(C)C)ncc3Cl)cc2)n1`, which survival is on record?
A: The survival was inactive: 79%.

Q: With `Cc1c(Cl)cccc1-n1ncc(C(=O)N2CCC(C)CC2)c1C1CCN(C(=O)OC(C)(C)C)CC1` as the compound, how does the survival read?
A: Its survival is inactive: 47%.

Q: How did the survival turn out when `NC(=O)C1CCN(C(=O)CSc2nc(O)cc(=O)[nH]2)CC1` was run?
A: The survival was inactive: 97%.

Q: How did the survival turn out when `CC(C)C(NS(=O)(=O)c1ccc2c(c1)oc(=O)n2C)C(=O)NCc1ccccc1` (configuration not stated) was run?
A: The survival was inactive: 85%.

Q: With `CC(=O)c1ccc(N2CCN(C(=O)c3cc4c(s3)-c3ccccc3OC4)CC2)cc1` as the compound, how does the survival read?
A: Its survival is inactive: 87%.

Q: With `CN(C(=O)C1CCN(c2ncnc3c2nc2n3CCCCC2)CC1)c1ccccc1F` as the compound, how does the survival read?
A: The survival was inactive: 60%.

Q: `COc1ccc(NC(=O)CSc2nc(-c3ccccc3)[nH]c2-c2ccccc2)cc1OC` was tested. Which survival did it give?
A: The survival was inactive: 69%.

Q: Which survival does the source give for `Cc1oc(-c2ccc(C(=O)NCc3ccccc3F)cc2)nc1COc1ccccc1` here?
A: Its survival is inactive: 85%.

Q: For `Nc1cccc(-c2cn3ccccc3n2)c1`, which survival is on record?
A: The survival was inactive: 95%.

Q: With `COc1cccc(NC(=O)Cn2nnc(C(=O)NCCc3ccccc3)c2N)c1` as the compound, how does the survival read?
A: Its survival is inactive: 148%.

Q: For `Cn1cnc2c(=O)oc3ccc(S(=O)(=O)N4CCN(c5ccccc5F)CC4)cc3c21`, which survival is on record?
A: Its survival is inactive: 76%.

Q: With `O=C(Nc1cccc(C(=O)OCc2cc(=O)n3c4c(sc3n2)CCCC4)c1)c1cccc(Cl)c1` as the compound, how does the survival read?
A: The survival was inactive: 73%.

— PubChem BioAssay AID463173 (ICCB-Longwood Screening Facility, Harvard Medical School, 2010)
